Data published in PubChem BioAssay AID624296 (National Center for Advancing Translational Sciences (NCATS), 2012).
Screen size: about 350,000 compounds; about 9,900 (2.8%) were called active. The shares of active, inactive and inconclusive entries below differ from those in the screen. The call rests on the fitted dose curve; in most records, active means well fitted activation curve with a large enough effect; inconclusive means small, poorly fitted or top-dose-only effect; inactive means no such curve, though single readings can be large or run the other way. No potency is given beside an inconclusive call; the fits are too rough.

Assay: A quantitative high throughput screen for small molecules that induce DNA re-replication in MCF 10a normal breast cells. Further: nearly all actives have a fitted effect of over 50% in size.
Details: MCF 10A DNA re-replication, Hoechst nuclear intensity, 48 h; series mostly up to 46.1 µM
Potency means the concentration at half of the fitted maximal effect; tags describe the fitted curve by direction and shape.

Structure (SMILES) | Potency
CCCn1c(=O)c2ccccc2n2c(SCCOc3ccccc3)nnc12 | inactive
CC(C)S(=O)(=O)c1nsc2nc(=O)c(/C=C3\C=Nc4ccccc43)c(N)n12 | inconclusive [activator, single point]
Cc1ccc(CNC(=O)Cn2cnc3c(NCc4ccccc4)ncnc32)o1 | inconclusive [activator, single point]
CC(C)C(=O)N1CCC(n2nccc2NC(=O)CCc2ccccc2)CC1 | inconclusive [activator, single point]
CCN(CCO)c1ncnc2c1sc1nc(CC(C)C)c3c(c12)CC(C)(C)OC3 | inconclusive [activator, full curve, poor fit]
CCN(CC)CCCC(C)NC(=O)c1c(NC(=O)c2ccccc2)sc2c1CCCC2 (stereo unspecified) | active: 4.61 µM
COc1ccccc1CNC(=O)c1csc(Cc2ccc(Cl)cc2)n1 | inconclusive [activator, single point]
Cc1ccc(-c2nc(N)sc2-c2ccccc2)cc1C | active: 8.2 µM
Cc1cc(C(=O)COC(=O)c2ccc(NC(=O)CC#N)cc2)c(C)n1C1CC1 | inconclusive [activator, full curve, poor fit]
O=C(Cc1ccccc1Cl)NC1(O)C(=O)c2ccccc2C1=O | inconclusive [activator, single point]
Cc1cc(SCC(=O)c2cc3ccccc3o2)nc2ccccc12 | inconclusive [activator, single point]
Cc1ccc(-n2c(-c3ccccc3)n[nH]c2=S)c(C)c1 | active: 0.651 µM
COc1ccc(-c2nc3ccccc3c(=O)n2CCOc2c(C)cccc2C)cc1 | inconclusive [activator, full curve, poor fit]
Cc1noc(C)c1C(=O)N1CCOCC1 | inactive
Cc1ccc(CNCC(O)(c2ccccc2)c2ccc(F)cc2)cc1 (stereo unspecified) | inactive
COc1ccc2c(c1)C=C([C@@H]1C[C@H]3CN(c4ccccc4)C(=O)[C@]34CCCN14)CO2 | inactive
Cc1ccc(NC(=O)CC2CS(=O)(=O)CC2CC(=O)Nc2ccc(C)c(C)c2)cc1C (stereo unspecified) | inconclusive [activator, single point]
Cc1cccc(NC(=O)CSc2nc3nc(C)cc(C)c3c(=O)[nH]2)c1 | inconclusive [activator, single point]
COc1ccc(/C=C/C(=O)O/N=C(\N)c2cccnc2)cc1OC | inactive
COc1cccc(CNC(=O)COc2ccc(C(=O)c3ccccc3)cc2)c1 | inconclusive [activator, full curve]
O=C(CSc1cn[nH]n1)Nc1ccccc1C(F)(F)F | inactive
Cc1ccc(N(CC(=O)NCc2ccc3c(c2)OCO3)C(=O)CCC(=O)Nc2ccccn2)cc1 | inconclusive [activator, single point]
Cc1ccc(-c2csc(NCCn3c(-c4ccncc4)nc4ccccc43)n2)cc1 | inactive
COc1cc(/C=C2/C(=N)N3C(=NC2=O)SN=C3S(C)(=O)=O)ccc1OS(=O)(=O)c1ccc(C)cc1 | inconclusive [activator, single point]

Structure (SMILES) | Potency
O=C(NC1CCCCC1)c1cccc(OCc2ccccc2)c1 | inactive
COc1ccc(S(=O)(=O)N2CCOCC2)cc1NC(=O)c1ccc2c(c1)OCO2 | inconclusive [activator, full curve, poor fit]
CCOC(=O)c1c(-c2ccc(F)cc2)csc1NC(=O)C1CC=CCC1C(=O)O (stereo unspecified) | inconclusive [activator, partial curve, poor fit]
O=C(NCc1n[nH]c(=S)n1-c1ccc(Cl)c(Cl)c1)c1cccs1 | inactive
Cc1ccccc1N1CCN(CCCN2C(=O)CC(=C(c3ccccc3)c3ccccc3)C2=O)CC1 | inconclusive [activator, partial curve, poor fit]
COCC(C)n1c(SCc2cc(=O)n3cc(C)ccc3n2)nc2ccccc2c1=O (stereo unspecified) | inactive
C[C@H](CO)N1C[C@H](C)[C@@H](CN(C)C(=O)NC2CCCCC2)Oc2ccc(NC(=O)C3CCCCC3)cc2C1=O | inconclusive [activator, single point]
CC(=O)N1CCOc2ccc(S(=O)(=O)NCCc3ccc(Cl)cc3)cc21 | inactive
CN1CCN(CCCC(=O)c2ccc(C3CCCC3)cc2)CC1 | inconclusive [activator, single point]
Cc1ccc2nc(SCc3nc4cc(Cl)ccc4c(=O)[nH]3)[nH]c2c1 | inconclusive [activator, full curve, poor fit]
COc1ccc(OC)c(NC(=O)CSc2nnc(Cc3cccn3C)n2CCc2ccccc2)c1 | inactive
CCOc1ccc(-c2nnc(SCC(=O)Nc3ccc4c(c3)c3ccccc3n4CC)n2N)cc1 | active: 10.3 µM
COc1ccc(N2COC3c4cccc5cccc(c45)C32)cc1 (stereo unspecified) | active: 23.1 µM
COc1ccc(CC(=O)OCn2nnc3ccccc3c2=O)cc1 | inconclusive [activator, single point]
Cc1cccc2cc(CN(CCCO)C(=O)Nc3ccccc3Cl)c(=O)[nH]c12 | inactive
COC(=O)c1c(C)n(-c2ccc(OC)cc2)c2ccc(O)cc12 | inconclusive [activator, single point]
CCN(CC)CCCNC1=C(Cl)C(=O)c2ccccc2C1=O | inconclusive [activator, single point]
COc1ccc(NC(=O)Cn2ncn3c(cc4ccccc43)c2=O)c(OC)c1OC | inconclusive [activator, single point]
Cc1ccc(CNC(=O)C2CCC(=O)N(CCCN3CCOCC3)C2)cc1 (stereo unspecified) | inactive
CCN(CC)S(=O)(=O)c1cccc(NC(=O)Nc2cccc(C(F)(F)F)c2)c1 | active: 23.1 µM
CCN(c1ccc(OC)cc1)S(=O)(=O)c1ccc2c(c1)NC(=O)CS2 | inconclusive [activator, single point]
CCN1C[C@@H]2[C@@H]3C(=O)N(C)C(=O)[C@@H]3[C@](C)(C1=O)N2C(=O)c1ccc(Cl)c(Cl)c1 | inactive
CCC/C(=C1/c2ccccc2C(=O)N1c1ccccc1)c1ccc2[nH]ccc2c1 | inconclusive [activator, partial curve, poor fit]
COC(=O)c1cc2c(=O)c3ccccc3oc2nc1/C=C/N(C)C | inactive

Structure (SMILES) | Potency
COc1ccc(C(=O)CSc2nnc(CN3CCCCC3)n2-c2ccc(Cl)cc2)cc1OC | inconclusive [activator, single point]
O=C(NCCc1ccccc1)C1CCCN1C(=O)Nc1ccc(Cl)cc1 (stereo unspecified) | inactive
CC(C)c1ccc(-c2nn(-c3ccccc3)cc2C(=O)NCC2CCCO2)cc1 (stereo unspecified) | inconclusive [activator, single point]
COc1ccccc1C(C)NCC(=O)Nc1ccccc1C(F)(F)F (stereo unspecified) | inconclusive [activator, single point]
O=C(NN=C1CCC(=NNC(=O)c2cccnc2)CC1)c1cccnc1 | active: 0.58 µM
CCc1nc(N2CCN(Cc3ccc4c(c3)OCO4)CC2)c2oc3ccccc3c2n1 | active: 9.2 µM
COc1ccc(S(=O)(=O)Nc2ccccc2)cc1 | inactive
O=C(Nc1nc2c(Cl)cccc2s1)c1ccc([N+](=O)[O-])o1 | inconclusive [activator, single point]
COc1ccc(/C=N/Nc2nc(C)cc(-c3ccccc3)n2)c(OC)c1 | inactive
CCCCCCSc1cccc(-c2nc3cc(C)ccn3c2NCc2ccccc2)c1 | inconclusive [activator, single point]
N#CC1(NC(=O)COC(=O)C23CC4CC(CC(O)(C4)C2)C3)CCCCC1 | inactive
CS(=O)(=O)c1ccc2nc(NC(=O)c3ccccc3Cl)sc2c1 | active: 0.82 µM
O=C(CN1C(=O)NC2(CCOc3ccccc32)C1=O)c1ccc(F)c(F)c1 (stereo unspecified) | inconclusive [activator, partial curve, poor fit]
CC(=O)NC(c1ccco1)c1cc(F)c2cccnc2c1O (stereo unspecified) | inconclusive [activator, partial curve, poor fit]
Cc1cc(C)cc(NC(=S)NCc2ccc3[nH]c4c(c3c2)CCCC4)c1 | inconclusive [activator, partial curve, poor fit]
O=C(CN1CCCC1)Nc1ccccc1Cl | inactive
COc1ccccc1NC(=O)Cc1nnc(SCC(=O)Nc2ccccc2F)n1C | inconclusive [activator, single point]
O=C(CN1CCCC1)N1c2ccccc2Sc2ccc(Cl)cc21 | inactive
COc1ccccc1-c1sc2ccccc2c1-c1ccc(OCCN2CCCCC2)cc1 | inconclusive [activator, single point]
COc1cccc(NC(=S)NC(=O)/C=C/c2ccco2)c1 | inconclusive [activator, partial curve]
COc1ccc(NC(=O)CCCN2C(=O)/C(=C\c3ccco3)SC2=S)cc1 | inconclusive [activator, single point]
O=C1OC(c2ccc3ccccc3c2O)(c2ccc3ccccc3c2O)c2ccccc21 | inconclusive [activator, single point]
CN(CC(=O)Nc1cccc(F)c1)C(=O)c1cn(-c2ccccc2)nc1-c1cccs1 | inconclusive [activator, single point]
